{
  "source": "patent US5840688A",
  "about": "“Eating suppressant peptides” (Research Corporation Technologies, Inc., priority 1995, dated 1998)",
  "key": {"male Sprague Dawley rats [1]": {"test_system": "male Sprague Dawley rats", "test": "Feeding study: food intake after infusion into the third ventricle of 24 h fasted rats", "assay_type": "in vivo, rat", "conditions": "for inhibition of food intake: synthetic peptide infused into third ventricle, doses 0.125-1.0 μg per rat, 24 h fasted, food consumption at thirty minutes after re-feeding; for effectiveness in inhibiting food intake compared with other peptides: based on the dose in μg of peptide administered", "protocol": "Animals used in vivo food intake studies were male Sprague Dawley rats weighing between 280 and 320 grams. The rats were housed in a room illuminated from 06:00 to 18:00 hours (twelve hour light-dark cycle) with a temperature maintained at 21 ±1° C. Both tap water and powdered laboratory chow (Laboratory chow #5001, Purina Mills, Inc.) were provided ad libitum to the rats.\nRats used in the study were surgically equipped with an infusion cannula in the third ventricle. Under sodium pentobarbital anesthesia (50 mg/kg ip), each rat was fixed in a stereotaxic apparatus, its skull was exposed, and two small screws were threaded into the skull to anchor the cannula. A three millimeter diameter hole was drilled in the skull on the midline six millimeters anterior to ear bar zero. A 15 mm long (23 gauge) stainless steel cannula was chronically implanted into the third ventricle, to a depth of 7.8 millimeters from the cortical surface, according to G. Paxinos and C. Watson, The Rat Brain in Stereotaxic Coordinates, 2d ed., (Academic Press, San Diego, 1986) Rats were allowed to recover for five days before the experiment. At testing time, food intake and body weight were ascertained to have returned to normal. All rats were handled for five minutes each day before the experiment to equilibrate their arousal levels.\nIn the feeding study, food was removed twenty four hours before the experiment, but free access to water was allowed. Different doses of each synthetic peptide tested were dissolved in physiological saline and infused into the third ventricle. The infusion rate was iμl/minute for ten minutes and infusions were administered under unrestrained and unanesthetized conditions beginning ten minutes before food was provided. After twenty four hours of fasting, each rat was re-fed at 13:00 hour, and powdered food consumption was measured at thirty minutes after the resumption of feeding.\nAs a control, 10 μl saline (vehicle) was infused into the third ventricle and the amount of food consumed for the thirty minute period was 4.5 ±0.5 grams (Mean ±SE, N=5).\nData from the feeding study were evaluated using one-way analysis of variance, and multiple comparisons were carried out using the method of least significant difference. Differences were considered significant when the probability of the difference occurring by chance was less than 5 in 100 (P <0.05)."}, "male Sprague Dawley rats [2]": {"test_system": "male Sprague Dawley rats", "test": "Food intake after intravenous infusion", "assay_type": "in vivo, rat", "conditions": "200μg by intravenous infusion, one hour study period"}},
  "note": "Where “and” joins values, the source holds several entries; their conditions need not be identical. Equal values may be shown once. Entries after “also recorded” stand apart in the source; their conditions may differ. Not every detail of the peptide structures is certain; ends, links or a residue may be inferred. No end group written: not given here.",
  "data": [
    {"sequence": "EVTSDQVANVMWDYF [SEQ ID NO:2]", "values": [
      {"measurement": "inhibition of food intake", "setting": "male Sprague Dawley rats [1]", "value": "ineffective in inhibiting food intake"}
    ]},
    {"sequence": "ALVQQMEKFRQQLGSDSGDVESHLSFLEKN [SEQ ID NO:7]", "values": [
      {"measurement": "inhibition of food intake", "setting": "male Sprague Dawley rats [1]", "value": "found to inhibit food intake"},
      {"measurement": "difference in food intake between the 0.5μg and the 1.04μg dose", "setting": "male Sprague Dawley rats [1]; third ventricle infusion", "value": "not found to be statistically significant"},
      {"measurement": "effectiveness in inhibiting food intake compared with other peptides", "setting": "male Sprague Dawley rats [1]; third ventricle infusion", "value": "not as effective in inhibiting food intake"}
    ]},
    {"sequence": "QLSNNNAKEAVEQLQ [SEQ ID NO:3]", "values": [
      {"measurement": "inhibition of food intake", "setting": "male Sprague Dawley rats [1]", "value": "effective in inhibiting food intake in a dose dependent manner"},
      {"measurement": "effectiveness in inhibiting food intake compared with other peptides", "setting": "male Sprague Dawley rats [1]; third ventricle infusion", "value": "more effective at suppressing food intake than the peptide of SEQ ID NO:1"}
    ]},
    {"sequence": "TQLSNNAKEAVEQLQ [SEQ ID NO:5]", "values": [
      {"measurement": "inhibition of food intake", "setting": "male Sprague Dawley rats [1]", "value": "suppression of food intake"}
    ]},
    {"sequence": "QEKLNHQMEGLAFQMKKNAEEL [SEQ ID NO:6]", "values": [
      {"measurement": "inhibition of food intake", "setting": "male Sprague Dawley rats [1]", "value": "neither dose showed any effect on food intake"}
    ]},
    {"sequence": "QLSNNAKEAVEQLQ [SEQ ID NO:4]", "values": [
      {"measurement": "inhibition of food intake", "setting": "male Sprague Dawley rats [1]", "value": "effective in inhibiting food intake in a dose dependent manner"},
      {"measurement": "effectiveness in inhibiting food intake compared with other peptides", "setting": "male Sprague Dawley rats [1]; third ventricle infusion", "value": "as effective as the peptide of SEQ ID NO:3; also recorded: more effective at suppressing food intake than the peptide of SEQ ID NO:1"},
      {"measurement": "food intake decrease (individual test rats)", "setting": "male Sprague Dawley rats [2]; single rat values", "value": "20% and 31% and 39%"},
      {"measurement": "food intake decrease (range of three rats)", "setting": "male Sprague Dawley rats [2]; three rats", "value": "20-40%"}
    ]}
  ]
}
